# Whole data set: some 33,000 sequences, median “E-score (-0.5 to 0.5)” near -0.035, cut for the highest 2% near 0.35. The list shows a part of the results.
# Target: T1, Pdr3 (UniProt P33200)
# T1 sequence: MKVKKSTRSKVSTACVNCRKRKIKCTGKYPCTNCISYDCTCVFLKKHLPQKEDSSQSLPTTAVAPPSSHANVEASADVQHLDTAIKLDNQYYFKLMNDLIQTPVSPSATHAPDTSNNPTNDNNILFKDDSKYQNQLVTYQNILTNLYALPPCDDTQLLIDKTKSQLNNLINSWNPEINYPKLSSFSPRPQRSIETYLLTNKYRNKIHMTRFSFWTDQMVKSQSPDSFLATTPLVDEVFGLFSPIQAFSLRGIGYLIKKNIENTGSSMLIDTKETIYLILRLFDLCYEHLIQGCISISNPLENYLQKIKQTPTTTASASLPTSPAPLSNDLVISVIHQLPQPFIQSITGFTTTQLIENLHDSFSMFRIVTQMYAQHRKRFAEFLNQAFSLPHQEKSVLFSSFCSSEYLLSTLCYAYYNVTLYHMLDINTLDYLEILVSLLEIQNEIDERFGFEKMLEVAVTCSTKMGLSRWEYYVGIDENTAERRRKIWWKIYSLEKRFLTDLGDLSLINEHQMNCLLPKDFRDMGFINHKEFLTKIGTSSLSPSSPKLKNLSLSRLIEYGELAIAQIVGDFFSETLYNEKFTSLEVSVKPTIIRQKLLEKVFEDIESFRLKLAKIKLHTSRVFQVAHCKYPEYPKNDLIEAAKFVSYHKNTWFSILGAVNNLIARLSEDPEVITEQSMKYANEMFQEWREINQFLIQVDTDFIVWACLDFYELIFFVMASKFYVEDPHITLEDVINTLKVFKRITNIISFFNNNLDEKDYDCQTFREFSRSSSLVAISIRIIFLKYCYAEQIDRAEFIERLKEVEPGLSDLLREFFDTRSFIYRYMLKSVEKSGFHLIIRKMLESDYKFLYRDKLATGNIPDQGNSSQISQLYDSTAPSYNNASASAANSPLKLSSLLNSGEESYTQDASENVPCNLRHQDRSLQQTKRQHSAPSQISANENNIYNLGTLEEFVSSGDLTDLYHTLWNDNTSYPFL
# Test: PBM E-score (8-mer binding enrichment) (E-score (-0.5 to 0.5)); higher = stronger / more preferred TF binding; most listed sequences are background and not binding sites
# Details: protein concentration: 200 nM; construct: GST-full length
# Method in brief: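 Bound GST-tagged yeast transcription factors, applied at about 100-200 nM to double-stranded universal all-10-mer Agilent arrays, were detected with fluorescent anti-GST. Scans were normalised with masliner. A modified Wilcoxon-Mann-Whitney statistic, the E-score, was assigned to each ungapped eight-base word pooled with its reverse complement by the Universal PBM Analysis Suite.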
row,Sequence,PBM E-score
1,AAAATGAT,0.12
2,CTTTCCCA,0.0901
3,ACGCTCTA,-0.232
4,CGCTGCGA,0.0964
5,AGCGTAAC,-0.0998
6,GACGAGTC,-0.163
7,CCGTTACG,0.203
8,AAAGTTGG,-0.0864
9,AATCTGCT,-0.15
10,AGGTTGCC,0.101
11,AGGCACCT,-0.17
12,CCTGGCCC,0.0706
13,CTCAATCA,0.0455
14,CTAAGTAA,-0.0721
15,ACGTAACG,-0.111
16,AGCGCAAG,-0.195
17,CTCCGTCA,0.128
18,AGTGGGTC,-0.0565
19,AATACGAA,0.019
20,CATTTAGC,-0.17
21,GTAGAAGA,-0.194
22,CCGCCCTA,-0.0244
23,GAAGAGAC,0.086
24,AACAGCTA,-0.0934
25,CACAACCC,-0.00342

row,Sequence,PBM E-score
1,AGCGTGCG,0.127
2,CCATATAA,-0.00525
3,ACGCCGAT,-0.0606
4,AGCCAACT,-0.185
5,GAGCGTAA,-0.0778
6,GGAAGACC,0.202
7,AACTGATT,-0.0719
8,CACATAAG,-0.259
9,GCAAAGGC,-0.14
10,CACCGGGA,0.272
11,AGTATACT,-0.282
12,ATTAGAAA,-0.0537
13,AGTTTGGA,-0.0252
14,AAAATATA,-0.0002
15,ATGCAAGG,-0.194
16,CCCTTTGA,-0.217
17,GCCGCACA,0.0419
18,ATATAACC,-0.102
19,AAACCTAG,-0.115
20,GCAGCCCA,-0.0597
21,TAGGGACA,0.0407
22,GGAAGAAA,0.0649
23,AAGAAGGG,-0.217
24,GCCAGGAC,-0.139
25,CTGTGGCC,-0.0745

row,Sequence,PBM E-score
1,AGCTGTTC,0.0741
2,AAACAGGT,-0.185
3,CAATTAAG,-0.0734
4,GACCGTGA,0.0874
5,AAAGCAAA,0.0583
6,CACCCATC,-0.175
7,CTATAAAG,-0.0652
8,GATTTGCC,0.0658
9,TCAACTCA,-0.096
10,GAGCCAAA,-0.0464
11,AATCAGGT,0.0601
12,AATCTCCC,-0.0436
13,AAGTTCAA,0.146
14,AGCTACCA,-0.0482
15,CGCGTGCA,-0.167
16,CGAATCAA,0.0151
17,CTCAGTCC,-0.06
18,CAACCATA,-0.0696
19,ATGCATAG,-0.236
20,CGCTAAGA,0.0694
21,GCGTAAGC,-0.21
22,CCGTGTAG,0.0242
23,CAGCTATA,0.016
24,CCAGCAGC,-0.066
25,AGGGTCAA,-0.0253

row,Sequence,PBM E-score
1,GGTAATAC,0.18
2,ATAAGTTA,-0.086
3,AGCCCTTA,-0.202
4,GTCGTAAC,-0.0674
5,ACCGATAA,0.0979
6,GAAGCGCA,0.24
7,GCCTCTAC,-0.346
8,ATACTAAG,-0.0603
9,CCTTGCCA,-0.0808
10,GAATTCCC,-0.0143
11,CCGAGAAA,0.357
12,ATGCTGCC,-0.0294
13,ACTAGCAG,-0.191
14,CTGTAGTC,-0.179
15,AGCTCTAC,-0.108
16,CACGTCGG,0.142
17,CAATCGGA,0.332
18,CCTGTACG,-0.19
19,AGTGTCGG,0.177
20,ATAAAAGC,0.0167
21,AGTGGTTC,0.00772
22,TTACCAAA,-0.105
23,GATGAGGC,-0.0831
24,ACGTCAGT,-0.112
25,GACGTATA,-0.17

row,Sequence,PBM E-score
1,CACGCCAA,-0.0967
2,CGCGGTTA,0.188
3,ACGTTTTG,-0.288
4,GGCGAGCA,0.0206
5,GTCTAAAA,-0.204
6,CCGGTGAG,0.154
7,GGATTGCA,0.185
8,AAAGGTGA,-0.148
9,GGGAGATA,0.0536
10,CCGATCGC,0.00975
11,AGAGAATC,0.0389
12,CGAACACA,0.123
13,TCATCGAA,-0.103
14,AGTATGAT,0.013
15,GCCCGCGC,0.336
16,AATCGTCA,-0.112
17,CAGGCAGG,-0.165
18,CACCCCTG,-0.105
19,ACCGTAGG,-0.303
20,AATCGTGA,-0.158
21,CGCGTTAA,0.0575
22,CGGCGACG,0.272
23,CCTATCCG,0.202
24,AGAAAAGG,-0.079
25,TACATACA,0.0677

row,Sequence,PBM E-score
1,GATGATAC,0.131
2,ATAAACGG,0.208
3,GCTAATAA,-0.0445
4,AGCAGGCT,-0.259
5,CCAGAACG,0.0264
6,ACCGGTCA,0.147
7,ATCGCCCG,0.266
8,CTTACATC,-0.0486
9,TACCGTGA,-0.00502
10,GAGACGGA,0.31
11,ACTGTCAA,-0.151
12,CTTGAGTC,-0.194
13,ATAGAGCG,-0.0724
14,ATGGTGCA,-0.134
15,CTGACTTA,0.0275
16,ACTTCTCT,-0.207
17,AATTGCCC,0.107
18,AATGTACT,-0.0131
19,CTAGTCCC,-0.146
20,CAACAGAC,-0.11
21,TGACGGCA,0.135
22,CAGAAAAC,-0.12
23,ACGGCTCG,0.222
24,GTCAACAC,0.071
25,CAGCTGTA,-0.0308

row,Sequence,PBM E-score
1,CACCGGTA,0.15
2,TATTCGAA,-0.234
3,GTACGCAC,-0.119
4,GAGTCCAA,-0.101
5,CCATCGTC,0.024
6,CACTGGTA,-0.146
7,GGTACACC,-0.179
8,AATAGAAT,-0.107
9,ATCACTAG,-0.0291
10,CCGCTTTA,0.0157
11,GCCCGAAA,0.153
12,ATAGATTA,-0.0055
13,CATCGCAG,-0.137
14,GCCGTCCA,0.159
15,AGACGCTG,-0.129
16,GGGTGTTA,0.0693
17,ATGACCGC,0.129
18,CTTTCCGA,0.413
19,CGCGAACA,0.194
20,AATTGCTC,-0.167
21,ACTGATCA,-0.052
22,CACATTCG,-0.0447
23,AGTCCACG,-0.0769
24,ATTACCGA,0.0951
25,ATCGGTGA,0.0153

row,Sequence,PBM E-score
1,AGATTATC,-0.0746
2,AATGCTCA,-0.0464
3,AGCGAAGG,-0.0572
4,CCGTTATC,0.213
5,CTCCCTAA,-0.187
6,GACGGAGC,0.213
7,ACAATCAA,0.0382
8,CCCTAGCG,-0.297
9,AACGACAA,0.0825
10,AAATGATG,0.133
11,GATGAGCC,-0.0616
12,CACGGGTC,0.25
13,CGCCCCTC,0.0145
14,GGATTCCA,0.191
15,GACGGTAC,0.0391
16,ATCACATA,0.00799
17,CACCATGA,-0.0152
18,CAGATCTA,-0.337
19,ATGCAACG,-0.012
20,AGGTATGA,-0.0996
21,ACAACGTC,-0.0147
22,GGCTTCCA,-0.084
23,ATGATAAC,-0.145
24,GCCCGGCA,0.225
25,CTCAACGA,-0.1

row,Sequence,PBM E-score
1,ATGACGCA,-0.0533
2,ATGGGAGG,-0.0734
3,CGTGGCAC,-0.068
4,CAGAGTCC,0.0248
5,CCCAGCTC,0.0314
6,GAATCCTC,0.0176
7,CCCTAGCC,-0.0872
8,CTTTAGGC,-0.296
9,ACGTACAA,-0.139
10,ATCGTCTC,-0.0382
11,ACTACTAC,-0.0193
12,TGCATGCA,-0.00836
13,AGCTCGTA,-0.232
14,GCTTTCCC,0.124
15,CTTGTACC,-0.0695
16,CGGGTGTA,0.217
17,TACAGCGA,-0.198
18,AAATGGCT,-0.126
19,ATTCAATG,-0.0444

# Reference: the supplement of paper PMC3334620
